Several values for one entry are separate records, joined by “and”; a condition that tells them apart may be missing. Equal entries are not always repeated. Screen size: about 1,800 compounds; about 50 (3%) showed activity. The list shows a part of the results.

20 molecules from the supplement of paper PMC11060735 can be followed below.
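Also: fibroblasts sorted 14 days after bleomycin, GFP+ and GFP− mixed 1:1 in 384-well plates (GFP− as in-well control), imaged after Hoechst and NucView530 staining, reference wells lacked compound.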

For the test, the system named is mouse p16Ink4a+/- lung fibroblasts (INKBRITE, bleomycin-injured). Briefly: percentage of GFP+ (p16Ink4a+) fibroblasts among all cells in well; higher = less depletion of p16Ink4a+ cells, active = 20 or less. Particulars: 1 µM; 3 days.
Consider `c1ccc(CC2=NCCN2)cc1` [Tolazoline, Priscoline], for which the “percentage of GFP+” value is inactive: 42.5%.
Consider `O=C(NCc1cccc(O)c1)Nc1nc(-c2ccncc2)cs1`, for which the “percentage of GFP+” value was inactive: 39.8%.
Turning to `CC1(C)S[C@@H]2[C@H](NC(=O)[C@H](N)c3ccccc3)C(=O)N2[C@H]1C(=O)O` [Ampicillin], the “percentage of GFP+” value was inactive: 49.5% and inactive: 41.4%.
With `CC(C)NCC(O)c1ccc(NS(C)(=O)=O)cc1` (stereo not given) [Sotalol] the figure was inactive: 39.9%.
In the case of `CC(CNC(=O)c1cccnc1)NC(=O)c1cccnc1` (stereo not given) [Nicaraven] it was inactive: 41.5%; in that of `CCN(CC)CC(=O)Nc1c(C)cccc1C` [Lidocaine], inactive: 45.2%; in that of `CC1=C(C(=O)OC2CCCCC2)C(c2ccc([N+](=O)[O-])cc2)C2=C(O)CC(C)(C)CC2=N1` (stereo not given), inactive: 44.8%.
With `CC1CC(OC(=O)C(O)c2ccccc2)CC(C)(C)C1` (stereo not given) [Cyclandelate] the figure was inactive: 42.7%; with `CC(=O)NS(=O)(=O)c1ccc(N)cc1` [Sulfacetamide], inactive: 50.8%.
In the case of `CC[C@H]1OC(=O)C[C@@H](O)[C@H](C)[C@@H](O[C@@H]2O[C@H](C)[C@@H](O)[C@H](N(C)C)[C@H]2O)[C@@H](CCN2C[C@H](C)C[C@H](C)C2)C[C@@H](C)C(=O)/C=C/C(C)=C/[C@@H]1CO[C@@H]1O[C@H](C)[C@@H](O)[C@@H](OC)[C@H]1OC` [Tilmicosin], the “percentage of GFP+” value is inactive: 50.6%.
In the case of `COC(=O)Nc1nc2cc(C(=O)c3cccs3)ccc2[nH]1` [Nocodazole] it was inactive: 23.5%; in that of `CN(C)CCC(c1ccc(Cl)cc1)c1ccccn1` (stereo not given) [Chlorphenamine], inactive: 37.1%.
As to `OCc1c[nH]c2ccccc12` [Indole-3-carbinol], the “percentage of GFP+” value was inactive: 47%.
For `Cc1ccc(F)c(NC(=O)Nc2ccc(-c3cccc4[nH]nc(N)c34)cc2)c1` [Linifanib], the “percentage of GFP+” value is inactive: 24%.
With `Cc1nc(O)c2cc(CN(C)c3ccc(C(=O)N[C@@H](CCC(=O)O)C(=O)O)s3)ccc2n1` [Raltitrexed] the figure was inactive: 40.7%.
With `O=C(O)c1cccnc1` [Niacin] the figure was inactive: 40.2%; with `CCC(C)(C)C(=O)O[C@H]1C[C@@H](C)C=C2C=C[C@H](C)[C@H](CC[C@@H]3C[C@@H](O)CC(=O)O3)[C@H]21` [Simvastatin], inactive: 20.1%.
With `CN1CCOC(c2ccccc2)c2ccccc2C1` (stereo not given) [Nefopam], the “percentage of GFP+” value is inactive: 42.1%.
With `COC(=O)Nc1nc2cc(S(=O)c3ccccc3)ccc2[nH]1` (stereo not given) [Oxfendazole] the figure was inactive: 36.2%; with `CS(=O)(=O)c1ccc([C@@H](O)[C@@H](CF)NC(=O)C(Cl)Cl)cc1` [Florfenicol], inactive: 50.4%.
